From patent publication US20210115142A1 (NANJING LEADS BIOLABS, published 2021)

Legend:
[1] = target: T1, rat TGFβ1 (Novoprotein, Cat. CK33) (rat, UniProt P17246 fragment, limits assumed); experiment: BLI (Octet RED96), Trap-15 on AHC biosensors, TGFβ1 in solution, 1:1 fit
T1 construct: Bought protein
Text: (§1) The association and dissociation curves were fit to a 1:1 Langmuir binding model using Octet evaluation software.

[2] = target: T2, Human TGFβ1 protein (human, UniProt P01137 fragment); experiment: as above
T2 construct: also called TGFβ1 protein (Sino, 10804-HNAC); Novoprotein Inc., Cat #CA59
Text: as §1

[3] = target: T2, Human TGFβ1 protein; experiment: ELISA, human TGFβ1 coated at 10 ng/well, detection with HRP goat anti-human Fc, OD450-620 [right panel]
T2 sequence (P01137 279-390 limits assumed): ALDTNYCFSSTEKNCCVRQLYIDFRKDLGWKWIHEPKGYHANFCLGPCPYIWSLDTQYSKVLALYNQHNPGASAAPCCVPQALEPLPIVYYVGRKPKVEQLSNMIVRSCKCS
Procedure: (§2) The plates were then blocked by incubation with 1% BSA in PBS for one hour at 37° C. After blocking, the plates were washed three times with PBST (PBS containing 0.05% Tween 20). […] After binding, the plates were washed three times with PBST, incubated for one hour at 37° C. with peroxidase-labeled Goat anti-human Fc antibody (Jackson Immuno Research, Cat #109-035-098) diluted 1/20,000 in binding buffer, washed again, developed with TMB (ThermoFisher Cat #34028) for 15 minutes, and then stopped with 1M H₂SO₄. The absorbance at 450 nm-620 nm was determined.

[4] = target: T2, Human TGFβ1 protein; experiment: cell-based or functional assay
[5] = target: human PD-1 on Jurkat-NFAT-PD-1 cells (human, UniProt Q15116 25-288); experiment: cell-based or functional assay
[6] = target: T3, Human PD-1 protein (ACRObiosystems, Cat #PD1-H5221) (human, UniProt Q15116 fragment); experiment: BLI (Octet RED96), Trap-15 on AHC biosensors, PD-1 in solution, 1:1 fit
T3 construct: Bought soluble protein
Text: as §1

[7] = target: T4, cynomolgus PD-1 (Acrobiosystems, Cat. #PD1-C5223) (cynomolgus, UniProt B0LAJ3 25-170); experiment: as above
T4 construct: Bought soluble protein; not shown: The vendor's tag on the bought protein (Acrobiosystems PD1-C5223, probably a C-terminal His tag)
T4 sequence (B0LAJ3 entry or part of it limits assumed): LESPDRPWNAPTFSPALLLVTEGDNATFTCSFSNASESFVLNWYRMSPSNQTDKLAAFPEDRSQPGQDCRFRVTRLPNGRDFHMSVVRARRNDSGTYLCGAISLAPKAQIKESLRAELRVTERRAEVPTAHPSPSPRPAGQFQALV
Text: as §1

[8] = target: T3, Human PD-1 protein (ACRObiosystems, Cat …); experiment: ELISA, human PD-1 coated at 25 ng/well, detection with HRP goat anti-human F(ab')2, OD450-620 [right panel]
Procedure: (§3) An ELISA assay was performed for determination of the relative binding capacity of the fusion proteins to human PD-1.
as §2, with “Human PD-1 protein (ACRObiosystems, Cat #PD1-H5221) was immobilized onto 96-well plates in PBS (Hyclone, Cat #SH30256.01) by incubation overnight at 4° C., 25 ng/well. The” for “The”, “F(ab′)²” for “Fc”, “#109-035-097)” for “#109-035-098)”, “(ThermoFisher,” for “(ThermoFisher”, “Each plate well contained 50 μL of solution” for “The absorbance”, “each step.” for “450 nm-620 nm was determined.”

[9] = target: T2, Human TGFβ1 protein; experiment: ELISA, human TGFβ1 coated at 10 ng/well, detection with HRP goat anti-human Fc, OD450-620 [left panel]
Procedure: as §2

[10] = target: T3, Human PD-1 protein (ACRObiosystems, Cat …); experiment: ELISA, human PD-1 coated at 25 ng/well, detection with HRP goat anti-human F(ab')2, OD450-620 [left panel]
Procedure: as §3
as §2, with “Human PD-1 protein (ACRObiosystems, Cat #PD1-H5221) was immobilized onto 96-well plates in PBS (Hyclone, Cat #SH30256.01) by incubation overnight at 4° C., 25 ng/well. The” for “The”, “F(ab′)²” for “Fc”, “#109-035-097)” for “#109-035-098)”, “(ThermoFisher,” for “(ThermoFisher”, “Each plate well contained 50 μL of solution” for “The absorbance”, “each step.” for “450 nm-620 nm was determined.”

Sequence of Human PD-1 protein (ACRObiosystems, Cat #PD1-H5221) (Q15116 25-167 limits assumed): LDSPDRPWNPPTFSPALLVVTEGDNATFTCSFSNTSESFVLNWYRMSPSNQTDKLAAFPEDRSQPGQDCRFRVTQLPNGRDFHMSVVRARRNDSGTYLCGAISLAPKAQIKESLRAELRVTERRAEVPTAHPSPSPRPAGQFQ
T1 sequence (P17246 279-390 limits assumed): as the sequence (P01137 279-390 limits assumed) above, with A75S counted along it

B1: Trap-15 (other)
heavy: QMQLVQSGAEVKKPGASVKLSCKASGYPFQSYYIHWVRQAPGQGLEWVGVINPSGGSTTYAQKFQGRVTMTRDTSISTAYMELSRLRSDDTVVYYCARGSYSSGWDYYYYYGMDVWGKGTLVTVSSASTKGPSVFPLAPSSKSTSGGTAALGCLVKDYFPEPVTVSWNSGALTSGVHTFPAVLQSSGLYSLSSVVTVPSSSLGTQTYICNVNHKPSNTKVDKKV[human IgG1 Fc with L234A L235A D265A P329A (EU numbers) skipped]AGGGGSGGGGSGGGGSGGGGSIPPHVQKSVNNDMIVTDNNGAVKFPQLCKFCDVRFSTCDNQKSCMSNCSITSICEKPQEVCVAVWRKNDENITLETVCHDPKLPYHDFILEDAASPKCIMKEKKKPGETFFMCSCSSDECNDNIIFSEEYNTSNPD
light: [about 120 residues skipped][about 100 residues skipped]
notes: Anti-PD-1 antibody with a TGFβRII extracellular domain linked by a (G4S)4 linker to the C-terminus of each heavy chain; Fc mutated to abolish ADCC and CDC; also called fusion protein Trap-15
- Kd [1]: 0.0719 nM
- koff [1]: 9.74e-05 s⁻¹
- kon [1]: 1.36e+06 M⁻¹ s⁻¹
- Kd [2]: 0.136 nM
- koff [2]: 0.00019 s⁻¹
- kon [2]: 1.4e+06 M⁻¹ s⁻¹
- EC50 [3]: 0.112 nM
- IC50, inhibition of TGFβ1-induced (1.2 ng/ml) luciferase signal in 293T/SBE-luc2P reporter cells [4]: 0.00576 nM
- EC50, rise of NFAT luciferase signal in Jurkat-NFAT-PD-1 cells co-cultured with CHO-OKT3-PD-L1 cells [5]: 0.157 nM
- Kd [6]: 5.24 nM
- koff [6]: 0.000736 s⁻¹
- kon [6]: 140000 M⁻¹ s⁻¹
- Kd [7]: 9.66 nM
- koff [7]: 0.0012 s⁻¹
- kon [7]: 125000 M⁻¹ s⁻¹
- EC50 [8]: 0.0799 nM

B2: M7824 (other)
heavy: EVQLLESGGGLVQPGGSLRLSCAASGFTFSSYIMMWVRQAPGKGLEWVSSIYPSGGITFYADTVKGRFTISRDNSKNTLYLQMNSLRAEDTAVYYCARIKLGTVTTVDYWGQGTLVTVSSASTKGPSVFPLAPSSKSTSGGTAALGCLVKDYFPEPVTVSWNSGALTSGVHTFPAVLQSSGLYSLSSVVTVPSSSLGTQTYICNVNHKPSNTKVDKRV[human IgG1 Fc skipped]GGGGSGGGGSGGGGSGGGGSGIPPHVQKSVNNDMIVTDNNGAVKFPQLCKFCDVRFSTCDNQKSCMSNCSITSICEKPQEVCVAVWRKNDENITLETVCHDPKLPYHDFILEDAASPKCIMKEKKKPGETFFMCSCSSDECNDNIIFSEEYNTSNPD
light: QSALTQPASVSGSPGQSITISCTGTSSDVGGYNYVSWYQQHPGKAPKLMIYDVSNRPSGVSNRFSGSKSGNTASLTISGLQAEDEADYYCSSYTSSSTRVFGTGTKVTVLGQPKANPTVTLFPPSSEELQANKATLVCLISDFYPGAVTVAWKADGSPVKAGVETTKPSKQSNNKYAASSYLSLTPEQWKSHRSYSCQVTHEGSTVEKTVAPTECS
- IC50, inhibition of TGFβ1-induced (1.2 ng/ml) luciferase signal in 293T/SBE-luc2P reporter cells [4]: 0.00543 nM

B3: Trap-13 (other)
heavy: QMQLVQSGAEVKKPGASVKLSCKASGYPFQSYYIHWVRQAPGQGLEWVGVINPSGGSTTYAQKFQGRVTMTRDTSISTAYMELSRLRSDDTVVYYCARGSYSSGWDYYYYYGMDVWGKGTLVTVSSASTKGPSVFPLAPSSKSTSGGTAALGCLVKDYFPEPVTVSWNSGALTSGVHTFPAVLQSSGLYSLSSVVTVPSSSLGTQTYICNVNHKPSNTKVDKKV[human IgG1 Fc with L234A L235A D265A P329A (EU numbers) skipped]ADKTHTCPPCPAPELLGGPSIPPHVQKSVNNDMIVTDNNGAVKFPQLCKFCDVRFSTCDNQKSCMSNCSITSICEKPQEVCVAVWRKNDENITLETVCHDPKLPYHDFILEDAASPKCIMKEKKKPGETFFMCSCSSDECNDNIIFSEEYNTSNPD
light: [about 120 residues skipped][about 100 residues skipped]
notes: Anti-PD-1 antibody with a TGFβRII extracellular domain linked by a linker to the C-terminus of each heavy chain; made in CHO-S cells, purified on Protein A; also called fusion protein Trap-13
- EC50 [9]: 0.149 nM
- EC50 [10]: 0.0844 nM

B4: Trap-14 (other)
heavy: QMQLVQSGAEVKKPGASVKLSCKASGYPFQSYYIHWVRQAPGQGLEWVGVINPSGGSTTYAQKFQGRVTMTRDTSISTAYMELSRLRSDDTVVYYCARGSYSSGWDYYYYYGMDVWGKGTLVTVSSASTKGPSVFPLAPSSKSTSGGTAALGCLVKDYFPEPVTVSWNSGALTSGVHTFPAVLQSSGLYSLSSVVTVPSSSLGTQTYICNVNHKPSNTKVDKKV[human IgG1 Fc with L234A L235A D265A P329A (EU numbers) skipped]ASKYGPPCPPCGGPSIPPHVQKSVNNDMIVTDNNGAVKFPQLCKFCDVRFSTCDNQKSCMSNCSITSICEKPQEVCVAVWRKNDENITLETVCHDPKLPYHDFILEDAASPKCIMKEKKKPGETFFMCSCSSDECNDNIIFSEEYNTSNPD
light: [about 120 residues skipped][about 100 residues skipped]
notes: Anti-PD-1 antibody with a TGFβRII extracellular domain linked by a linker to the C-terminus of each heavy chain; also called fusion protein Trap-14
- EC50 [3]: 0.167 nM
- EC50 [10]: 0.0681 nM
